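Test compounds were applied to cells in 96-well plates for 48 hours at 5 doses. GI50 = concentration required for 50% inhibition of growth. TGI: concentration producing complete growth inhibition.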
Tested on: NCI-H322M lung
Assay: NCI tumour cell line growth inhibition, 48 h

Structure (SMILES)	GI50	TGI
Cc1cnc(C(=O)Nc2nc3ccc(S(=O)(=O)Nc4ccc(C(C)(C)C)cc4)cc3[nH]2)cn1	0.676 µM	13.8 µM
O=[N+]([O-])C(/C=C(\Cl)[N+](=O)[O-])=C(N1CCOCC1)N1CCOCC1	–	> 100 µM
C1CCC(CC2CCC(NC3=NCCO3)CC2)CC1 (centres undefined)	–	61 µM
C=CCN(C(C)=O)c1cc(OCc2ccccc2)c2c(c1)c(C)cn2S(=O)(=O)c1ccccc1	–	> 100 µM
O=C1OCc2nc3c(c(-c4ccccc4C(F)(F)F)c21)C(=O)OC3	–	> 100 µM
COc1ccc2cc(CNCCCCCCNC(=O)Nc3cccc4ccccc34)ccc2c1	–	> 100 µM
N#Cc1ccc2c(-c3ccnc(NC4CC4)n3)c(-c3ccc(F)cc3)nn2c1	> 25 µM	> 25 µM
Cc1ccc(-c2ccc3c(c2)Sc2ccccc2O3)n1C	–	> 100 µM
C=C(CN1CCN(c2cc(C(F)(F)F)cc(C(F)(F)F)c2)CC1)c1ccc(C(=O)Nc2ccccc2N)cc1	21.9 µM	> 100 µM
CC/C(=C/c1ccc(OC)cc1)[N+](=O)[O-]	10.7 µM	23.6 µM
COC(=O)c1sc2c(c1C(=O)OC)C(=Nc1ccc(OC)cc1)SC2=Nc1ccc(OC)cc1	–	2.98 µM
CC(C)(C)n1cc(-c2ccnc(NCCCNS(=O)(=O)c3cccc4ccccc34)c2)c(-c2cccc(O)c2)n1	2.66 µM	7.31 µM
CC(=O)OC1CCC2(C)C(CCC3C2CCC2(C)C(c4ccc(=O)oc4)C(OC(C)=O)CC32O)C1 (centres undefined)	–	0.0284 µM
O=C(OC[C@H]1C[C@H]2C(=O)OCCC[C@H]2O1)c1ccccc1	–	> 100 µM
COc1oc(C2C/C(=C/C(C)=C/C(C)=C/C(C)=C/c3ccc([N+](=O)[O-])cc3)CO2)c(C)c(=O)c1C (centres undefined)	–	> 100 µM
COC(=O)C(=O)C(C(=O)C(=O)Nc1cc(C)ccc1C)c1nc2ccccc2[nH]c1=O (centres undefined)	–	> 100 µM
Cc1ccc2nc(CN(CCN(Cc3nc4ccc(C)cc4[nH]3)Cc3nc4ccc(C)cc4[nH]3)Cc3nc4ccc(C)cc4[nH]3)[nH]c2c1	1.2 µM	2.43 µM
C=C1C(C)C2C(Cc3ccccc3)NC(=O)C23C(OC(C)=O)C=CC(C)(O)C(=O)C(C)C/C=C/C3C1O (centres undefined)	> 301 µM	> 500 µM

Structure (SMILES)	GI50	TGI
COc1cc(O)c(C(=O)C2Cc3ccccc32)c(OC)c1 (centres undefined)	–	> 100 µM
COc1cc(C2c3cc4c(cc3[C@@H](Nc3ccc(F)cc3)C3COC(=O)[C@H]23)OCO4)cc(OC)c1O (some centres undefined)	–	72.9 µM
CCc1nnc2sc(-c3ccc(-c4ccccc4[N+](=O)[O-])o3)nn12	–	> 100 µM
O=C1c2c(c3c4ccccc4n(CC4CO4)c3c3[nH]c4ccccc4c23)C(=O)N1Cc1ccccc1 (centres undefined)	–	> 100 µM
COc1cc(/C=N\Nc2ccccc2)ccc1OC(=O)c1ccccc1	21.2 µM	> 100 µM
CSc1ccc(-c2cn3ccsc3n2)cc1	> 36 µM	> 89.9 µM
N#Cc1sc2nc3c(c(-c4ccccc4)c2c1N)CCCC3	–	> 100 µM
Cc1cc2nc3c(N)nn(CCCN(C)C)c3nc2cc1C	–	> 100 µM
C=CC[PH+](c1ccccc1)c1ccccc1.C=CC[PH+](c1ccccc1)c1ccccc1.[Pt+2].[S-]c1nc2ccccc2[nH]1.[S-]c1nc2ccccc2[nH]1	2.1 µM	6.1 µM
COC(OC)c1cccc2c1C(=O)CCC1(CC2)OCCCCO1	–	> 100 µM
O=C(NCCN1CCOCC1)c1cc2c(Oc3ccc(NC(=O)C4(C(=O)Nc5ccc(F)cc5)CC4)cc3)ccnc2[nH]1	7.59 µM	> 93.9 µM
c1ccc(-c2cc(-c3ccccc3)nc(-c3ccncc3)c2)cc1	–	> 100 µM
CCOC(=O)C(=O)CC(=O)C(Br)C(Br)c1ccc(Cl)cc1 (centres undefined)	–	> 100 µM
C=C1C(=O)C23C(O)CC4C(C)(C)CCC(O)C4(C)C2CC(OC(C)=O)C1[C@H]3O (some centres undefined)	–	23.1 µM
COc1cc(C(=O)/C=C/c2c[nH]c3ccccc23)cc(OC)c1OC	0.0637 µM	20.8 µM
CC[C@H](C)[C@H](NC(=O)CN(C)C)C(=O)N(C)[C@H](C[C@@H](OC(C)=O)c1nc(C(=O)NC23C4C5C2C2C3C4C52C(=O)OC)cs1)C(C)C (some centres undefined)	1.3 µM	> 33.2 µM
CC(=O)O[C@H]1CSC[C@@H](OC(C)=O)C1[N+](=O)[O-] (some centres undefined)	–	> 100 µM
O=C1OCOC2(CCCC2)C1c1ccccc1 (centres undefined)	–	> 100 µM

Reference: PubChem BioAssay (NCI)
